According to the supplement of paper PMC10126150:
Values marked as one replicate rest on one cluster of the flow cell; about a third of the high ones do not repeat.

Tested on: ATP
Experiment: switch fluorescence ratio, 500 uM ATP over buffer (Cy3 cluster intensity, sum of 5 cycles each) (fold (ratio)); higher = stronger signal-on switching upon ATP binding; sequences stand for … in TCGTCGGCAGCGTCAGATGTGTATAAGAGACAGTTTTTTTTTTTTTTTTTTTTTTTTT…TC
Details: aptamer strand: ATP DNA aptamer (quencher-CACCTGGGGGAGTATTGCGGAGGAAGG + anchor), 100 nM annealed; ATP concentration: 500 uM; one replicate
In short: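 Per cluster, summed Cy3 intensity from the target cycles was divided by that from the buffer cycles to give the fluorescence ratio, then averaged per switch-domain sequence. Clusters outside 100-1000 RFU were excluded. The Cy3-labelled switching-strand clusters, on a modified Illumina MiSeq flow-cell, were annealed to 100 nM quencher-labelled ATP aptamer and imaged in selection buffer, then after 15 min with 500 uM ATP at 22 °C, for five cycles with NaOH stripping and re-annealing between them.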
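Further: ATP exposure 15 min at 22 °C before imaging.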

Sequence	switch fluorescence ratio
TTTGGGTCAC	1.04
TATGCCTGGA	1.03
AAAATAGGAG	0.996
GGCAAAAGCT	1
AATCGCTGTG	1.04
CCTCGGGGTT	1.15
GGGGGTCATA	0.964
TTGAATGTAT	1.01
CGTCGCGAAA	1.05
GGCCACAAGA	1.02
CCATCTTAGG	1.01
TTGAGTATAA	0.998
CATGCTTTAG	0.975
CGTAAATCGA	1
TATCAAGTAT	1
ACTGTGTAGT	1.01
GGATTTCGGT	1
AGGACCTGAA	1.07
ACATGTTCCG	0.996
AACAACACGA	1.22
TTGTGCACTA	1.02
TGCATTGGAT	1.03
CTAATTGGGA	0.978

Sequence	switch fluorescence ratio
TACTTTGTTA	1.04
CATTACTTTA	1.07
AGATTCTGAC	1
TGTGAGTGAA	1.02
ATCTTTTCA	0.946
GACAGGGTGT	1.16
AATTCTCGGA	1.02
GCCTAGCCTT	1.03
GCTAGTCCAC	1.03
ATCGGATAGC	1.04
TTCATAACCT	1.3
GGCACTGCTG	0.978
GCCCGGAGCT	1.65
GTAGTGTCAT	0.951
TGAGGCAGCG	1.14
GCACAATCCG	1.11
CAGTCAGAAC	0.995
TGGTTGTGTG	0.982
AGTTGGAACC	0.987
TTGACATTCT	0.961
TACAGCCGGG	1.06
TTTAACTTGC	1.09
GAGGTTACAC	1

Sequence	switch fluorescence ratio
GATATGAATC	0.973
ACATTATGTC	1.12
GTTCGCAGCG	1
AATATGGTCT	1.04
TCTACACCGG	1.02
CGTGTCGCGA	1.02
TTCGGCTCGG	0.979
GGTATAGTAC	1.05
CTAGGTCGGG	0.955
GTTAATACGT	1
CACCGAGATG	1.07
TGTTTTACCC	0.961
GAGTGTAGGA	0.986
CCTGAGAG	1.01
TAGTTCGC	0.986
CTACAAGTAG	1.03
AAGCTGAGTA	1.01
TGGTTGTGTC	1.03
TTAGCGCGGC	1.08
ATACGGATGA	0.973
CTCAGAGATG	1.01
GCGATTGCAG	0.993
ACCGATCTTT	1.01

Sequence	switch fluorescence ratio
GATGCAGAGA	0.971
AATAAATGTT	1.02
TCTCGATGGT	1.01
TAGTAAACGG	1.02
CATATCTTCA	1.13
CCGGATAAT	0.97
TTTAGTTATA	1.03
GAGGTGGCTG	0.987
GGGGTTATAT	1.01
AATCGCTAGT	0.989
CTTTCTGATG	1
CACAGCTACG	1.1
TCACCGCGAG	2.71
CAGCAGGGC	1.19
ATTTTCGCCG	1.06
AAATCATGG	1
TAAGGAGCCC	1.01
ATCTATACCT	1.2
TCATGAGCTG	0.986
AGAGAGTTGT	1
GACATCCCGG	0.947
CATAACGGA	1
GATATGAAGT	0.984

Sequence	switch fluorescence ratio
TTTCGCATGT	1.15
AAAGAACCGT	1.04
TAAACCCAAA	0.992
GATGACCAAT	1.08
TTGAAGTTCA	1
TTTGTTCCG	1.03
GCGATATATT	1.04
CAGCGGTACA	1.29
TCATGGTACT	1.04
TTCTACTATC	1.02
CGGGCCAGAA	1.38
AACTTTTCTG	1.04
AATTTGTCA	1.01
ACCCTTTGA	1.02
CGTCGCATTA	1.67
TGGCAGGCTT	0.977
CGTTACTGGG	0.993
AAAGTAGGAC	1.11
AGCAAACGAT	1.05
GATGCCAGGT	1.27
TGATAGTAGG	0.988
CAGTGAGGAT	0.985
ACGGGAGTTT	0.978

Sequence	switch fluorescence ratio
CGCATTAGTT	1.29
AGTAACGGGG	0.98
TCTGTGTCAA	1.01
CGTGTATCTC	1.06
ATACTCGTCT	1.06
CGTGCTCTCT	1.02
GCATAGTTAC	1.14
GTTTGCCGGT	0.945
CCGATTGGGA	1.04
AAGAGACTTG	1.08
GCAGGCTTC	1.05
GGAGACTCTC	0.968
GAAACTGTAG	1.05
CATTGTCTAC	1.03
TCCGAACAAA	0.989
GGTTGGATAC	0.984
ACATGGCTTC	0.988
TTTGCCGCTC	1.09
TTCGCATTTT	1.03
CAAACGTGTT	1
GAGGTTGAGG	1
CGGCTGCAAG	1.08
AGGGCATGCT	1.02

Sequence	switch fluorescence ratio
CAGATGGGA	1.03
ATGAACTCTC	0.982
TGTGCATAGG	1.02
CATACGGTAG	0.984
GGATATGGGA	0.985
CAAGGTGTCA	1.03
AGCTCGCAAA	1.33
AAGATGGTT	0.977
TTCGGGTGTA	0.995
AAGTATTTGG	0.977
ATCGAATTCT	0.997
GTGGTATAGA	1.03
AGGTGGGAG	0.986
TGGTGTCCCG	0.987
TTTCGGCGG	0.989
TGCTGCTGTT	1.05
AAGGCCCTTT	1.02
GCAACTGAGA	1.04
GATGTAGTAC	1.32
